# From the supplement of paper PMC4604168 (melanoma cell lines)
# This is one part of the list. Repeats are few or missing, and single values can be far off.
# How the values were obtained:
# Assay in all cases: cell count relative to DMSO control; melanoma cells; higher = more viable cells
# Details in all cases: library dose: standard library concentration; 72 h
# G361 = test system: G361
# IPC-298 = test system: IPC-298
# IST-MEL1 = test system: IST-MEL1
# LB2518-MEL = test system: LB2518-MEL
# LOXIMVI = test system: LOXIMVI
# MEL-HO = test system: MEL-HO
# MZ2-MEL = test system: MZ2-MEL
# MeWo = test system: MeWo
# RPMI7951 = test system: RPMI7951
# RVH-421 = test system: RVH-421
# SkMel28 = test system: SkMel28
# SkMel2 = test system: SkMel2
# SkMel30 = test system: SkMel30
# SkMel5 = test system: SkMel5
# UACC257 = test system: UACC257
# UACC62 = test system: UACC62
# WM115 = test system: WM115
# WM1716 = test system: WM1716
# WM3526 = test system: WM3526
# WM1745 = test system: WM1745
# 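Further: cells treated in 1,536-well plates, then fixed and DAPI-stained, with nuclei counted from automated high-throughput microscope images.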
Compound,cell count (G361),cell count (IPC-298),cell count (IST-MEL1),cell count (LB2518-MEL),cell count (LOXIMVI),cell count (MEL-HO),cell count (MZ2-MEL),cell count (MeWo),cell count (RPMI7951),cell count (RVH-421),cell count (SkMel28),cell count (SkMel2),cell count (SkMel30),cell count (SkMel5),cell count (UACC257),cell count (UACC62),cell count (WM115),cell count (WM1716),cell count (WM3526),cell count (WM1745)
"CCN(CC)CCNC(=O)c1c(C)[nH]c(/C=C2\C(=O)Nc3ccc(F)cc32)c1C [sunitinib] + COc1cc(N2CCC(N3CCN(C)CC3)CC2)ccc1Nc1ncc(Cl)c(Nc2ccccc2S(=O)(=O)C(C)C)n1 [NVP-TAE684] (first compound 2 µM, partner dose 0.4 µM)",72.1%,83.2%,113%,65.1%,101%,95.7%,89.9%,45.1%,45.8%,113%,56.3%,32.7%,70.3%,44.8%,93.1%,60.7%,54.5%,75.8%,48.9%,–
"COc1cc([C@@H]2c3cc4c(cc3[C@@H](O[C@@H]3O[C@@H]5CO[C@@H](C)O[C@H]5[C@H](O)[C@H]3O)[C@H]3COC(=O)[C@H]23)OCO4)cc(OC)c1O [etoposide] + C[C@@H](Oc1cc(-c2cnn(C3CCNCC3)c2)cnc1N)c1c(Cl)ccc(F)c1Cl [Crizotinib] (first compound 0.1 µM, partner dose 1 µM)",76.1%,65.9%,95.3%,66.5%,131%,87.9%,54%,68.7%,86.1%,84.9%,51.9%,48.9%,89.2%,64.5%,78.3%,68.1%,55.5%,63.9%,66.5%,70.2%
"CCN(CC)CCNC(=O)c1c(C)[nH]c(/C=C2\C(=O)Nc3ccc(F)cc32)c1C [sunitinib] + CN(C)S(=O)(=O)c1ccc2c(c1)/C(=C/c1cc3c([nH]1)CCCC3)C(=O)N2 [SU6656] (first compound 2 µM, partner dose 2 µM)",70.9%,62.6%,75.1%,42.3%,76.3%,80.5%,87.8%,57.3%,58.9%,510%,33.7%,60.9%,65.2%,47.4%,61.8%,57.7%,34.2%,80.1%,56.4%,46.7%
"CCN(CC)CCNC(=O)c1c(C)[nH]c(/C=C2\C(=O)Nc3ccc(F)cc32)c1C [sunitinib] + N#Cc1c(O)c2c(-c3ccc(-c4ccccc4O)cc3)csc2[nH]c1=O [A769662] (first compound 2 µM, partner dose 10 µM)",105%,76.7%,89.5%,63.1%,88.6%,99.3%,96.2%,49.9%,87.4%,102%,67.5%,65.9%,68.8%,63.5%,98.3%,77.4%,74.6%,98.5%,76.6%,–
"COc1cc([C@@H]2c3cc4c(cc3[C@@H](O[C@@H]3O[C@@H]5CO[C@@H](C)O[C@H]5[C@H](O)[C@H]3O)[C@H]3COC(=O)[C@H]23)OCO4)cc(OC)c1O [etoposide] + Cn1cc(/C=C2\C(=O)Nc3cccnc32)c2ccccc21 [GW441756] (first compound 0.1 µM, partner dose 2 µM)",88.2%,71.2%,96.3%,71.1%,96.5%,95%,65.9%,91.3%,98.7%,109%,77.5%,65.5%,113%,71.5%,79.7%,56.7%,82.5%,67%,105%,–
"Cn1cnc2c(F)c(Nc3ccc(Br)cc3Cl)c(C(=O)NOCCO)cc21 [selumetinib] + Oc1nc(-c2ccc(C(F)(F)F)cc2)nc2c1CSCC2 [XAV939] (first compound 0.075 µM, partner dose 10 µM)",64.5%,47.1%,75.3%,35.9%,101%,63.8%,66.7%,64.5%,83.9%,66.7%,49.3%,55.4%,61.9%,72.8%,71.8%,60.2%,68.6%,61.7%,56.5%,–
"CCN(CC)CCNC(=O)c1c(C)[nH]c(/C=C2\C(=O)Nc3ccc(F)cc32)c1C [sunitinib] + Cc1nc(Nc2ncc(C(=O)Nc3c(C)cccc3Cl)s2)cc(N2CCN(CCO)CC2)n1 [dasatanib] (first compound 2 µM, partner dose 0.02 µM)",58.7%,84.6%,66.2%,58.5%,46.1%,72.9%,63%,58.8%,40.6%,42.2%,47.9%,59.9%,63.4%,57.5%,73.2%,58.6%,62.4%,78.5%,47.1%,22.8%
"C[C@]1(O)C[C@@H](c2nc(-c3ccc4ccc(-c5ccccc5)nc4c3)c3c(N)nccn32)C1 + C=C(c1ccc(C(=O)O)cc1)c1cc2c(cc1C)C(C)(C)CCC2(C)C [Bexarotene] (first compound 2 µM, partner dose 10 µM)",58.5%,74.9%,82.9%,78.9%,103%,78.6%,70.9%,83.1%,51%,87.8%,55.2%,60.9%,105%,69.9%,86.6%,58.4%,109%,90.1%,54.7%,47.4%
"CCN(CC)CCNC(=O)c1c(C)[nH]c(/C=C2\C(=O)Nc3ccc(F)cc32)c1C [sunitinib] + CCc1ccc(CCOc2ccc(CC3SC(=O)NC3=O)cc2)nc1 [pioglitazone] (first compound 2 µM, partner dose 10 µM)",99%,92%,101%,79.9%,84.7%,88%,133%,71.2%,84.9%,87.7%,71.8%,96.5%,70.3%,49.2%,89.5%,91.4%,72%,122%,69.6%,–
"COc1cc([C@@H]2c3cc4c(cc3[C@@H](O[C@@H]3O[C@@H]5CO[C@@H](C)O[C@H]5[C@H](O)[C@H]3O)[C@H]3COC(=O)[C@H]23)OCO4)cc(OC)c1O [etoposide] + O=C(O)C(=O)Nc1sc2c(c1C(=O)O)CCNC2 [TCS401] (first compound 0.1 µM, partner dose 8.33333 µM)",91.2%,75.5%,88%,82.8%,92.4%,83.3%,80.9%,72.9%,88.1%,90.7%,50.1%,55.8%,84.4%,66.6%,78.2%,76.7%,64.1%,53.4%,77.3%,–
"CCN(CC)CCNC(=O)c1c(C)[nH]c(/C=C2\C(=O)Nc3ccc(F)cc32)c1C [sunitinib] + Cc1ccc(NC(=O)c2cccc(N(C)C)c2)cc1NC(=O)c1ccc(O)cc1 [ZM336372] (first compound 2 µM, partner dose 10 µM)",62%,59.4%,89.1%,37.8%,80.6%,88%,98.7%,45.6%,55.7%,97.1%,72.1%,25.6%,58.6%,43.8%,94.1%,46.8%,57.8%,102%,59.2%,35.3%
"COc1cc([C@@H]2c3cc4c(cc3[C@@H](O[C@@H]3O[C@@H]5CO[C@@H](C)O[C@H]5[C@H](O)[C@H]3O)[C@H]3COC(=O)[C@H]23)OCO4)cc(OC)c1O [etoposide] + Oc1nc(-c2ccc(C(F)(F)F)cc2)nc2c1CSCC2 [XAV939] (first compound 0.1 µM, partner dose 10 µM)",78.7%,73.3%,100%,80.6%,106%,76.8%,74.5%,92.6%,75.3%,104%,47.4%,58.5%,94.6%,64.4%,69.6%,67.5%,67.4%,40.6%,97.9%,–
"COc1cc([C@@H]2c3cc4c(cc3[C@@H](O[C@@H]3O[C@@H]5CO[C@@H](C)O[C@H]5[C@H](O)[C@H]3O)[C@H]3COC(=O)[C@H]23)OCO4)cc(OC)c1O [etoposide] + COc1cc(N2CCC(N3CCN(C)CC3)CC2)ccc1Nc1ncc(Cl)c(Nc2ccccc2S(=O)(=O)C(C)C)n1 [NVP-TAE684] (first compound 0.1 µM, partner dose 0.4 µM)",98.8%,85.1%,93.6%,123%,104%,82.3%,95.7%,71%,71.9%,126%,81.2%,65.8%,118%,66.3%,88.3%,66.2%,63.8%,67.1%,75.9%,–
